Assay results: patent publication US20260191982A1, “ANTI-BASAL CELL ADHESION MOLECULE ANTIBODY-DRUG CONJUGATE” (Genome & Company, Inc., priority 2022, published 2026)

What was measured:
[1] = test system: BCAM positive A431 xenograft model; assay: In vivo anti-tumor activity in A431 xenograft model; set-up: species or system BALB/c nude mouse; conditions: for mean tumor growth rate (vehicle control = 100%): day 14
Description: In vivo anti-tumor activity of Ab1-Linker-AF was evaluated in BCAM positive A431 xenograft model. A431 cells (KCLB, Korea) were cultured in RPMI supplemented with 10% FBS and 1% penicillin/streptomycin at 37° C. and 5% CO2. To establish a tumor model, 5×10^6 A431 cells were subcutaneously injected into the right flank of a 6-week-old female BALB/c nude mouse (Orientbio, Korea). When tumors reached 75~150 mm^3, mice were randomly assigned to the following treatment groups (n=8/group): PBS (vehicle), HG4K IgG4-Linker-AF (20 mg/kg), Ab1 (20 mg/kg), and Ab1-Linker-AF (5, 10, and 20 mg/kg). Each control or test article was given intravenously once a week for two weeks. Tumor diameters were measured 2 to 3 times a week and the tumor volume was calculated with the following formula: [Tumor volume=Length×Width^2×0.5]. […] On day 14 after starting treatment, the mean tumor growth rate of the vehicle control group was set as 100% and compared with other control groups (20 mg/kg of HG4K IgG4-Linker-AF and 20 mg/kg of Ab1) and Ab1-Linker-AF (5, 10, and 20 mg/kg) treatment groups.

[2] = test system: MKN-1 cells endogenously expressing BCAM; assay: In vitro cellular internalization by confocal laser scanning microscopy; format: cell-based, human
Description: In vitro cellular internalization property by receptor-mediated endocytosis of Ab1 was evaluated to MKN-1 cells endogenously expressing BCAM by immunocytochemical analysis using confocal laser scanning microscopy. MKN-1 (human gastric adenosquamous carcinoma cancer cell line, KCLB) cells were seeded at 5.0×10^4 cells to each well on the chamber slide (SPL, Korea) and incubated overnight at 37° C. and 5% CO2 condition. Next day, the chamber slides were washed with 1 mL of PBS and μL of Ab1 (40 μg/mL) or HG4K IgG4 (SinoBiological, USA) (40 μg/mL) diluted in PBS was added to indicated well. The Ab1 treated chamber slides were divided into two groups, one group was used as a negative control for cellular internalization, and the other group was used for induction of cellular internalization. For negative control group, the Ab1 treated cells in chamber slides were incubated for 1 hr at 4° C., and then unbound antibodies were removed and washed 3 times with 1 mL of PBS. The chamber slide was fixed with 500 μL of 4% PFA (paraformaldehyde; Sigma, USA) solution for 10 min at room temperature. […] After washing 3 times with PBS, Dako fluorescence mounting solution was drop-wisely added to the slides, and the slides were sealed with clear cover glass. […]

[3] = test system: VCaP; assay: Cytotoxic activity, CellTiter-Glo assay (Example 3.2); format: cell-based, human; conditions: 72 hours
Description: (§1) In vitro cytotoxic activity of Ab1-Linker-MMAF and Ab3-Linker-MMAF was assessed in several human cancer cell lines (KURAMOCHI, OVCAR3, SK-BR-3, VCaP or RERF-GC-1B) expressing different levels of BCAM by CellTiter-Glo® assay (Promega). Cells were seeded into 96 well clear flat bottom plates (5,000 cells/well) in RPMI-1640 (for KURAMOCHI, OVCAR3, and SK-BR-3) or DMEM (for VCaP and RERF-GC-1B) supplemented with 10% FBS and 1% penicillin/streptomycin and kept at 37° C. and 5% CO2. After overnight incubation, cells were treated with different concentrations of Ab1-Linker-MMAF, Ab3-Linker-MMAF or negative controls for each test article (HG4K IgG4-Linker-MMAF for Ab1-Linker-MMAF and Ab3-Linker-MMAF, respectively). After 72 hours, CellTiter-Glo® reagent was added to each well and luminescence was measured using Envision 2105 (PerkinElmer, Waltham, MA). All experiments were performed in triplicate. The percentage of viable cells was determined using the following formula: (T−D0)/(V−D0)×100 [T=luminescence of drug treated cells, V=luminescence of PBS (vehicle) treated cells, D0=luminescence of untreated cells on day 0]. All data were analyzed using GraphPad Prism software (GraphPad Software, San Diego, CA).

[4] = test system: OVCAR3; assay: as above; format: cell-based, human; conditions: 72 hours
Description: as §1

[5] = test system: RERF-GC-1B; assay: as above; format: cell-based, human; conditions: 72 hours
Description: as §1

[6] = test system: SK-BR-3; assay: as above; format: cell-based, human; conditions: 72 hours; Table 4.2
Description: as §1

[7] = test system: KURAMOCHI; assay: as above; format: cell-based, human; conditions: 72 hours
Description: as §1

[8] = test system: A431; assay: Cytotoxic activity, CellTiter-Glo assay (Example 3.1); format: cell-based, human; conditions: 72 hours
Description: (§2) In vitro cytotoxic activity of Ab1-Linker-DM1, Ab1-Linker-AF and Ab2-Linker-AF was assessed in several human cancer cell lines (SK-BR-3, T47D, MCF-7, A431 or Huh7) expressing different levels of BCAM by CellTiter-Glo® assay (Promega). Cells were seeded into 96 well clear flat bottom plates (5,000 cells/well) in RPMI-1640 supplemented with 10% FBS and 1% penicillin/streptomycin and kept at 37° C. and 5% CO 2. After overnight incubation, cells were treated with different concentrations of Ab1-Linker-DM1, Ab1-Linker-AF or negative controls for each test article (HG4K IgG4-Linker-DM1 for Ab1-Linker-DM1 and HG4K IgG4-Linker-AF for Ab1-Linker-AF and Ab2-Linker-AF, respectively). After 72 hours, CellTiter-Glo® reagent was added to each well and luminescence was measured using Synergy H1 (BioTek, Winooski, VT). All experiments were performed in triplicate. The percentage of viable cells was determined using the following formula: (T−D0)/(V−D0)×100 [T=luminescence of drug treated cells, V=luminescence of PBS (vehicle) treated cells, D0=luminescence of untreated cells on day 0]. All data were analyzed using GraphPad Prism software (GraphPad Software, San Diego, CA). […] See FIGS. 1A (for Ab1-Linker-DM1) and 1B (for Ab1-Linker-AF). […] Next, the cytotoxicity of Ab2-Linker-AF was examined in SK-BR3 and A431 cells.

[9] = test system: SK-BR-3; assay: as above; format: cell-based, human; conditions: 72 hours
Description: as §2

[10] = test system: T47D; assay: as above; format: cell-based, human; conditions: 72 hours
Description: as §2

[11] = test system: MCF-7; assay: as above; format: cell-based, human; conditions: 72 hours
Description: as §2

[12] = test system: Huh7; assay: as above; format: cell-based, human; conditions: 72 hours
Description: as §2

[13] = 20 mg/kg i.v. once a week for two weeks
[14] = Table 4.1 Ab2-Linker-AF section
[15] = Table 4.1 Ab1-Linker-DM1 / Ab1-Linker-AF sections

B1: Ab1: anti-BCAM antibody, human IgG4 S228P isotype; heavy chain SEQ ID NO: 9, light chain SEQ ID NO: 11 (antibody)
heavy: EVQLVQSGGGLVKPGGSLRLSCAASGFTFSDYYMSWIRQAPGKGLEWVSYTSSSGSTIYYADSVKGRFTISRDNAKNSLYLQMNSLRAEDTAVYYCARDITAFDIWGQGTMVTVSSASTKGPSVFPLAPCSRSTSESTAALGCLVKDYFPEPVTVSWNSGALTSGVHTFPAVLQSSGLYSLSSVVTVPSSSLGTKTYTCNVDHKPSNTKVDKRV[human IgG4 Fc with S228P (EU numbers) left out here]
light: LPVLTQPPSASGSPGQSVTISCTGTSSDVGGYNYVSWYQQHPGKAPKLMIYEVNKRPSGVPDRFSGSKSGNTASLTVSGLQAEDEADYYCCSYAGSNNYVFGTGTKVTVLGQPKAAPSVTLFPPSSEELQANKATLVCLISDFYPGAVTVAWKADSSPVKAGVETTTPSKQSNNKYAASSYLSLTPEQWKSHRSYSCQVTHEGSTVEKTVAPTECS
mean tumor growth rate (vehicle control = 100%) [1, 13]: 83.4%
Localisation of antibody in MKN-1 cells ([2]; internalization induction group: 40 μg/mL, 1 hr at 4° C. then 1 hr at 37° C.): detected in the intracellular region of MKN-1
Localisation of antibody in MKN-1 cells ([2]; negative control group: 40 μg/mL, 1 hr at 4° C. without cellular internalization induction): detected on the cell surface of MKN-1
GI50 [3]: > 1000 nM
GI50 [4]: > 1000 nM
GI50 [5]: > 1000 nM
GI50 [6]: > 1000 nM
GI50 [7]: > 1000 nM

B2: Ab2: anti-BCAM antibody, human IgG1 isotype; heavy chain SEQ ID NO: 10, light chain SEQ ID NO: 11 (antibody)
heavy: EVQLVQSGGGLVKPGGSLRLSCAASGFTFSDYYMSWIRQAPGKGLEWVSYTSSSGSTIYYADSVKGRFTISRDNAKNSLYLQMNSLRAEDTAVYYCARDITAFDIWGQGTMVTVSSASTKGPSVFPLAPSSKSTSGGTAALGCLVNDYFPEPVTVSWNSGALTSGVHTFPAVLQSSGLYSLSSVVTVPSSSLGTQTYICNVNHKPSNTKVDKKV[human IgG1 Fc left out here]
light: B1 light
GI50 [8, 14]: > 1000 nM
GI50 [9, 14]: > 1000 nM

B3: Ab3: anti-BCAM antibody, human IgG1 LALA isotype; heavy chain SEQ ID NO: 12, light chain SEQ ID NO: 11 (antibody)
heavy: EVQLVQSGGGLVKPGGSLRLSCAASGFTFSDYYMSWIRQAPGKGLEWVSYTSSSGSTIYYADSVKGRFTISRDNAKNSLYLQMNSLRAEDTAVYYCARDITAFDIWGQGTMVTVSSASTKGPSVFPLAPSSKSTSGGTAALGCLVNDYFPEPVTVSWNSGALTSGVHTFPAVLQSSGLYSLSSVVTVPSSSLGTQTYICNVNHKPSNTKVDKKV[human IgG1 Fc with changes left out here]
light: B1 light
GI50 [3]: > 1000 nM
GI50 [4]: > 1000 nM
GI50 [5]: > 1000 nM
GI50 [6]: > 1000 nM
GI50 [7]: > 1000 nM

B4: Ab1-Linker-MMAF (conjugate)
heavy: B1 heavy
light: B1 light
modifications: non-natural residues
GI50 [3]: 14 nM
GI50 [4]: 5.1 nM
GI50 [5]: 1.5 nM
GI50 [6]: 0.31 nM
GI50 [7]: 5.3 nM

B5: Ab3-Linker-MMAF (conjugate)
heavy: EVQLVQSGGGLVKPGGSLRLSCAASGFTFSDYYMSWIRQAPGKGLEWVSYTSSSGSTIYYADSVKGRFTISRDNAKNSLYLQMNSLRAEDTAVYYCARDITAFDIWGQGTMVTVSSASTKGPSVFPLAPSSKSTSGGTAALGCLVNDYFPEPVTVSWNSGALTSGVHTFPAVLQSSGLYSLSSVVTVPSSSLGTQTYICNVNHKPSNTKVDKKV[human IgG1 Fc with changes left out here]
light: B1 light
modifications: non-natural residues
GI50 [3]: 24 nM
GI50 [4]: 3.1 nM
GI50 [5]: 1.4 nM
GI50 [6]: 0.24 nM
GI50 [7]: 4.4 nM

B6: Ab1-Linker-DM1 (conjugate)
heavy: B1 heavy
light: B1 light
modifications: non-natural residues
GI50 [8, 15]: 42 nM
GI50 [9, 15]: 2.8 nM
GI50 [10]: 16 nM
GI50 [11]: 34 nM
GI50 [12]: 22 nM

B7: Ab1-Linker-AF (conjugate)
heavy: B1 heavy
light: B1 light
modifications: non-natural residues
GI50 [8, 15]: 9.1 nM
GI50 [9, 15]: 0.9 nM
GI50 [10]: 31 nM
GI50 [11]: 59 nM
GI50 [12]: 193 nM
mean tumor growth rate (vehicle control = 100%) ([1]; 5 mg/kg i.v. once a week for two weeks): 34.2%
mean tumor growth rate (vehicle control = 100%) ([1]; 10 mg/kg i.v. once a week for two weeks): 11.4%
mean tumor growth rate (vehicle control = 100%) [1, 13]: 7.3%
A431 tumor growth ([1]; 5, 10 and 20 mg/kg intravenously once a week for two weeks): significantly inhibited the A431 tumor growth in a dose dependent manner
